# Test results reported in PMC7819943, “Rice protein-binding microarrays: a tool to detect cis-acting elements near promoter regions in rice”.
# The list shows a part of the results.
# Target: T1, OsWOX13 (Oryza sativa, UniProt Q5QMM3 1-267)
# T1 sequence: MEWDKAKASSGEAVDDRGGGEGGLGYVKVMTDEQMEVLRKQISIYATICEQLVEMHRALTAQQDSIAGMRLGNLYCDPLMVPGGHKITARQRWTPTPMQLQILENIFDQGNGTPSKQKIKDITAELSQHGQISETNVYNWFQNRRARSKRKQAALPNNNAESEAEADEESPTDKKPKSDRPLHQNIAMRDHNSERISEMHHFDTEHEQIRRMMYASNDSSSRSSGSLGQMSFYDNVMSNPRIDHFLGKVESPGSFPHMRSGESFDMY
# Assay: protein-binding microarray (RPBM); PBS, 2% BSA, 51.3 ng/ul salmon testes DNA, 50 uM zinc acetate, 200 nM TF, 25 C, 1 h; high values mean tight binding
# Conditions: protein: recombinant; tags: N-terminal polyhistidine and DsRed monomer fusion (pET32a); label: CyDye5-dUTP incorporated in the synthesized complementary strand; 3' TTTTT single-stranded linker to array surface; dsDNA, one strand shown
# Method in brief: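 The binding signal for each feature is its fluorescence intensity in arbitrary units. An Axon 4000B scanner was used to read a custom Agilent array that had been made double-stranded with Cy5-dUTP primer extension, blocked with 2% BSA, incubated at 25 °C for 1 h with 200 nM protein in PBS, 2% BSA, salmon testes DNA and 50 µM zinc acetate, and washed. The protein was an N-terminal polyhistidine–DsRed transcription factor fusion from E. coli BL21-CodonPlus, purified on Ni–NTA.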
row,Sequence,binding signal
1,ACAAAATCTATAGTAATTGCTGATTAAAATCTAGTCCCAACGGAGTCACCTAGTGCAG,21600 fluorescence intensity (a.u.)
2,AATTATATAATTAGGACCGAAAGACTAAAGATTGGTGGCTCGGAGTCACCTAGTGCAG,11800 fluorescence intensity (a.u.)
3,TTTAGACAGATTGTCCGATTCCGTTTCCAGTAGTATGATTCGGAGTCACCTAGTGCAG,29800 fluorescence intensity (a.u.)
4,TTAATAATTAGTACATCCGTCTCAAAATGAATCTATCACTCGGAGTCACCTAGTGCAG,5990 fluorescence intensity (a.u.)
5,TCTGACATAGAAAACGAGTTTGCAAACAGTGAGCCCACCTCGGAGTCACCTAGTGCAG,3520 fluorescence intensity (a.u.)
6,CAAATCATGTCATCAAAATAATTACTCCGATCGCTAACACCGGAGTCACCTAGTGCAG,6250 fluorescence intensity (a.u.)
7,TAAAATTATTATATTTTATAAGAAAGGTAACAAGTAAACACGGAGTCACCTAGTGCAG,3370 fluorescence intensity (a.u.)
8,GCAATTTATTAAATAATTATTATTTTGAAAACATCTTAGACGGAGTCACCTAGTGCAG,15100 fluorescence intensity (a.u.)
9,GCCAACAATTAATCAAGTAGTACACTCACATGGGTCCTTGCGGAGTCACCTAGTGCAG,9040 fluorescence intensity (a.u.)
10,GCAATGCATCACTTGATTGGAGTACTGAATGGAATGCTGCCGGAGTCACCTAGTGCAG,17300 fluorescence intensity (a.u.)
11,CGTGATTAGAATCCATCTCCGACCGACCGCACATACAAAGCGGAGTCACCTAGTGCAG,43300 fluorescence intensity (a.u.)
12,CACTTAATTAACAGACAAGTGCTACTGGGGACAATGATAGCGGAGTCACCTAGTGCAG,34000 fluorescence intensity (a.u.)
13,ACCCAAAATCAACTCAAATCAAATCTCCACTGCTTAAGAGCGGAGTCACCTAGTGCAG,5720 fluorescence intensity (a.u.)
14,TATTAACCAATAGACAGATACACTATTACAGTGCCTTGTACGGAGTCACCTAGTGCAG,3700 fluorescence intensity (a.u.)
15,CGATAAATTTGGCCGGAATTTATCAGCGTTAGGCACGGACCGGAGTCACCTAGTGCAG,13200 fluorescence intensity (a.u.)
16,TAGGAACATGTCATAGATTGGAAGTTTACCCATTAGGAACCGGAGTCACCTAGTGCAG,6710 fluorescence intensity (a.u.)
17,TTTGATTTAGGGAACTACCAGACTGGACTTTTCACCTTTTCGGAGTCACCTAGTGCAG,23700 fluorescence intensity (a.u.)
18,AGTATCAACCTAATAGTTAATGCACCAATTCAAAACTCGTCGGAGTCACCTAGTGCAG,3750 fluorescence intensity (a.u.)
19,GTACAATTTTCATAATTTGCATAAATCGAAAAGAAAAGTGCGGAGTCACCTAGTGCAG,12400 fluorescence intensity (a.u.)
20,AAATTGATATCGGATTAAACACGCTGATGAAATGTTCTTGCGGAGTCACCTAGTGCAG,6190 fluorescence intensity (a.u.)
21,GTGATTGGGCTATTTGTAATGTTCAGATGGTGAACTGTGCCGGAGTCACCTAGTGCAG,27600 fluorescence intensity (a.u.)

row,Sequence,binding signal
1,TCATCATTACTGGATGACGAGCTAATGACGGATTTGCCATCGGAGTCACCTAGTGCAG,6820 fluorescence intensity (a.u.)
2,TCACAATTGGTTTGACTGGTCCTGAAGAGAAGAAGAGGCTCGGAGTCACCTAGTGCAG,10400 fluorescence intensity (a.u.)
3,TCTTCCCTTGCTTAATTAATGGCCCAAATGCTGCTCGCCCCGGAGTCACCTAGTGCAG,3720 fluorescence intensity (a.u.)
4,TTTCAATCAAACTTTCAATTTTAGTATGAAGTAAACACACCGGAGTCACCTAGTGCAG,30400 fluorescence intensity (a.u.)
5,GCTGATGGGATTGAGATGAAATGAAATCAAAGGGAGCATGCGGAGTCACCTAGTGCAG,36500 fluorescence intensity (a.u.)
6,ACTAAATTTCCTCCATTCGAAAGCAGAGCAAAGTTGGAGGCGGAGTCACCTAGTGCAG,4330 fluorescence intensity (a.u.)
7,GTTTGATCGAAATTTGGTAAATATCGCTGTACTTCAATTACGGAGTCACCTAGTGCAG,6010 fluorescence intensity (a.u.)
8,GTGAAGATTATTTTAATCTTATTATTATTATTTTACGGTTCGGAGTCACCTAGTGCAG,5000 fluorescence intensity (a.u.)
9,AATTGAAAGACGAGGATTAATGAAAGGATTTCGCTGACTGCGGAGTCACCTAGTGCAG,3570 fluorescence intensity (a.u.)
10,CTCAATTTATTATGATATGTTGCATCAATGTTAAGTTTCACGGAGTCACCTAGTGCAG,3360 fluorescence intensity (a.u.)
11,ACTTCGCTAATGATTATCATCCCCTCCTACCTCCCGAACACGGAGTCACCTAGTGCAG,16200 fluorescence intensity (a.u.)
12,AATTTGATGTAAATTATCTATGATTTTAGTGCATAAACTTCGGAGTCACCTAGTGCAG,29500 fluorescence intensity (a.u.)
13,AACCGATTCCAATCATTTAACCAAACCCATGCTTATGCGACGGAGTCACCTAGTGCAG,16100 fluorescence intensity (a.u.)
14,GAGATCGATTGATCGAATCGAAGAAACCCCAAACCCCACCCGGAGTCACCTAGTGCAG,5620 fluorescence intensity (a.u.)
15,AAAACATGAAATAAATTAAAGAAAATAGTCCTATATAGGCCGGAGTCACCTAGTGCAG,4540 fluorescence intensity (a.u.)
16,GGGGACCTGTAATTGTGATACTGTAAACATTAACCTTTACCGGAGTCACCTAGTGCAG,3980 fluorescence intensity (a.u.)
17,ATCGCAAATTACAAGTGGTATATAGTACTACAAACGTATCCGGAGTCACCTAGTGCAG,3370 fluorescence intensity (a.u.)
18,GAAAATTATATAATGTTCTGTCACTGAAGTACTACCAATTCGGAGTCACCTAGTGCAG,11600 fluorescence intensity (a.u.)
19,CCATGTAGCCAATCATGTATGGAAGAATGAAGAGTCATGCCGGAGTCACCTAGTGCAG,8500 fluorescence intensity (a.u.)
20,ATTCGATTGAAGTTTTATAGGTTTTCAATGGTAGTGCACCCGGAGTCACCTAGTGCAG,9030 fluorescence intensity (a.u.)
21,TGCCCTAATTTCTTATTTGGTGTACGGTTGTAATGGTGTACGGAGTCACCTAGTGCAG,6180 fluorescence intensity (a.u.)
